Reference: US7041785B1, “B1-bradykinin receptor antagonists and use thereof” (Université de Sherbrooke, priority 1996, dated 2006)
Part of at least one peptide drawing is inferred or uncertain, most often the ends. Non-standard residues stand in square brackets, D forms with d. Residues, ends and D or L forms follow the SMILES beside them. dTic = O=C(O)[C@H]1Cc2ccccc2CN1

Legend:
B2 receptor [1] = molecular target: T1, B2 receptor (Cavia porcellus, UniProt O70526)
T1 sequence (O70526 1-372): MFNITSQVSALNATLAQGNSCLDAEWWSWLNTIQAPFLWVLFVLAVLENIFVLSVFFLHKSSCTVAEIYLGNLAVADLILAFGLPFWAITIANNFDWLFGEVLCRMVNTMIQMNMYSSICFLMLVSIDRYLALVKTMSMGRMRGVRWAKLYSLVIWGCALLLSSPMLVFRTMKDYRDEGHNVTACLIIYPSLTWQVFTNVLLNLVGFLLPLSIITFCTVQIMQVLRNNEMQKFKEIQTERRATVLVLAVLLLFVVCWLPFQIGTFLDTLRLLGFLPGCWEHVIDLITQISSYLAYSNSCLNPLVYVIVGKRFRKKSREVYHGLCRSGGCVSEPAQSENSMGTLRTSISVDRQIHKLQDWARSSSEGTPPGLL
Excerpt: (§1) Tissues were taken from New Zealand white rabbits (1.5–2.5 kg) and Dunken Hartley guinea pigs (250–350 g) of either sex, killed by stunning and exsanguination. Umbilical cords were taken from healthy women 22–40 years old after spontaneous delivery at term. The rabbit jugular vein (RbJV), the guinea pig ileum (GPI), two preparations containing B2 receptors, the rabbit aorta (RbA) (B1 receptor) and the human umbilical vein (HUV), a mixed preparation containing both B1 and B2 receptors^10, were used. Helical strips of RbJV treated with 1 μmol/L of captopril to avoid peptide degradation by the angiotensin-converting enzyme (ACE), alias kininase II were prepared according to Gaudreau et al.^11 Helical strips of RbA devoid of endothelium were prepared according to Furchgott and Bhadrakom^12. Longitudinal segments of GPI were prepared with the procedure described by Rang^13. Helical strips of HUV were prepared according to Gobeil et al.^10. The tissues were suspended in 10-ml organ baths containing warm (37EC), oxygenated (95% O2–5% CO2) Krebs solution of the following composition in mmol/L; NaCl: 118.1; KCl: 4.7; CaCl26H2O: 2.5; KH2PO4: 1.2; MgSO47H2O: 1.18; NaHCO3: 25.0 and D-Glucose: 5.5. The RbA and the HUV were stretched with an initial tension of 2 g, whereas the RbJV and the GPI were loaded with 0.5 g. Changes of tension produced by the various agents were measured with Grass isometric transducers (model FT 03C, Grass Instrument Co., Quincy, Mass.). […] Before testing the drugs, the tissues were allowed to equilibrate for 60–120 min during which time the tissues were repeatedly washed and the tension readjusted every 15 min.
(§2) At the beginning of each experiment, a submaximal dose of bradykinin (BK) (9 nmol/L), was applied repeatedly on the RbJV, the GPI or the HUV to ensure that tissues responded with stable contractions. […] A similar protocol was used for the HUV.
(§3) Repeated applications of a singl and double concentration of BK (on RbJV, GPI and HUV) and of desArg^9BK (RbA and HUV) were made in the absence and in presence of the various peptides to evaluate their apparent affinities as antagonists, in terms of pA2 (-log10 of the molar concentration of antagonist that reduces the effect of a double concentration of agonist to that of a single one)^14. The antagonists were applied 10 min before measuring the myotropic effects of either BK (the B2 receptor agonist) or desArg^9BK (the B1 receptor agonist). […] All kinin antagonists were initially applied to tissues at concentration of 10 μg/mL to measure their potential agonistic activities (α^E) in comparison with BK (in the B2 receptor preparations) or desArg^9BK (in the B1 receptor preparations).

B2 receptor [2] = molecular target: T2, B2 receptor (Oryctolagus cuniculus, UniProt Q28642); conditions: residual agonistic activity at 10 μg/mL in comparison with BK
T2 sequence (Q28642 1-367): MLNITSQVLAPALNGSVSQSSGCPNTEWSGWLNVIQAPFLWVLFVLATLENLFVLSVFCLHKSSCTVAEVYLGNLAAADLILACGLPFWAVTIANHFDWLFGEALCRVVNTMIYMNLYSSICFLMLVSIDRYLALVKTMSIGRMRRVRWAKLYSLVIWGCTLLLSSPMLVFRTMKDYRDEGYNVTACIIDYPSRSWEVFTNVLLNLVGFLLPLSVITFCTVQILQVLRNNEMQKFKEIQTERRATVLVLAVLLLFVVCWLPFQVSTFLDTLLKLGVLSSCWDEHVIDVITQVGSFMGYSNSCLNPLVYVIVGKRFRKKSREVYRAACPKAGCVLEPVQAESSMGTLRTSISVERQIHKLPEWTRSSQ
Excerpt: as §1, §2, §3

human B1 receptor = molecular target: T3, human B1 receptor (Homo sapiens, UniProt P46663)
T3 sequence (P46663 1-353): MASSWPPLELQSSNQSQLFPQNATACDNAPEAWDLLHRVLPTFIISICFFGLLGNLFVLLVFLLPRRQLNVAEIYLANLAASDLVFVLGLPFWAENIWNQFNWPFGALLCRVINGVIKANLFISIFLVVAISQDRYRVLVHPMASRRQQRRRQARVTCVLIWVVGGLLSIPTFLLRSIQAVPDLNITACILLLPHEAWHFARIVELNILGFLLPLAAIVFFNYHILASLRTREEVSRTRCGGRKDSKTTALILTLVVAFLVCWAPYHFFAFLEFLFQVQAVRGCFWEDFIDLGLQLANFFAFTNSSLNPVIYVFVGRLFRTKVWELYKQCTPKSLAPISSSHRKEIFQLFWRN
Excerpt: as §1, §2, §3

BK-B1 receptor = molecular target: T4, BK-B1 receptor (Rattus norvegicus, UniProt P97583); assay: Isometric contraction of portal vein segments from STZ-induced diabetic rats; format: cell-based
T4 construct: Segments of the portal vein (a known preparation for BK studies) from these rats were mounted in organ baths; from tissue; host or cells: rat portal vein segments (STZ-diabetic and normal rats)
T4 sequence (P97583 1-337): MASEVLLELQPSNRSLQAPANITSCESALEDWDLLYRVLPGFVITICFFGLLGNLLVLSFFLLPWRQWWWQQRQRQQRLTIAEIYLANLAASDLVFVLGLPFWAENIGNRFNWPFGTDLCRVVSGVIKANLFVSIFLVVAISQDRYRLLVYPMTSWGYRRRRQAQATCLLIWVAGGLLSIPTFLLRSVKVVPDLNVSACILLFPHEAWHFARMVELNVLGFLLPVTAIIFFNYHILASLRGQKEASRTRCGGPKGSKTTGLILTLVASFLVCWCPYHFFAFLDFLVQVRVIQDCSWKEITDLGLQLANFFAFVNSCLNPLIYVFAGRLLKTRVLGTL
Excerpt: Capillary permeability is known to be selectively augmented in the streptozotocin (STZ) diabetic rat model^49. The vascular BK receptors in the STZ-induced diabetic rat was examined. Segments of the portal vein (a known preparation for BK studies) from these rats were mounted in organ baths for isometric contraction studies. The response to desArg^9BK, a specific BK–B1 receptor agonist, was enhanced by 118% in the diabetic tissue, compared to normal portal veins (0.48 vs 0.22g: P<0.001). […] HOE140, the BK–B2 receptor antagonist, had no effect on the diabetic portal vein abnormality. Evans blue (EB: 20 mg/kg), a marker of albumin extravasation, was injected to unanesthetized diabetic rats. […] Therefore, it was concluded that post-capillary hypercontractility to BK (via its B1 receptor) forces EB extravasation, and likely contributed to the diabetic vasculopathy.

B1-BK receptor = molecular target: T5, B1-BK receptor (Rattus norvegicus, UniProt P97583); assay: Isometric contraction of desendothelialized portal vein segments from SHR and normal rats; format: cell-based; conditions: 2 ug/ml; control rats and SHR
T5 construct: Desendothelialized portal vein segments obtained from SHR were mounted in organ baths; from tissue; host or cells: rat portal vein segments without endothelium (SHR and normal rats)
T5 sequence (P97583 1-337): T4 sequence (P97583 1-337)

human B2 receptor = molecular target: T6, human B2 receptor (Homo sapiens, UniProt P30411); conditions: data from Gobeil et al. 1996; cited from earlier work
T6 construct: Helical strips of HUV were prepared according to Gobeil et al; from tissue; host or cells: human umbilical vein helical strips
T6 sequence (P30411 1-391): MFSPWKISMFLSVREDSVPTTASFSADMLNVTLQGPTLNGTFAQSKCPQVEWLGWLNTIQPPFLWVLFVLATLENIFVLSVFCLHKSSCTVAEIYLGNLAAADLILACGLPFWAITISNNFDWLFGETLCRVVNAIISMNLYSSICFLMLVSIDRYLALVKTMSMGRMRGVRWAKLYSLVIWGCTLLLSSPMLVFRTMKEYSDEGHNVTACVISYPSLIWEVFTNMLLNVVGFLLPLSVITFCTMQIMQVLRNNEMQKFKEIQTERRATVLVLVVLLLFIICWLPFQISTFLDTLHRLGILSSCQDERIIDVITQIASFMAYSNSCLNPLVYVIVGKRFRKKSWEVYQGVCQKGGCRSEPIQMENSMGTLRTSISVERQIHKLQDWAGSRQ

B1 receptor = molecular target: T7, B1 receptor (Oryctolagus cuniculus, UniProt P48748); conditions: residual agonistic activity at 10 μg/mL in comparison with desArg9BK
T7 sequence (P48748 1-352): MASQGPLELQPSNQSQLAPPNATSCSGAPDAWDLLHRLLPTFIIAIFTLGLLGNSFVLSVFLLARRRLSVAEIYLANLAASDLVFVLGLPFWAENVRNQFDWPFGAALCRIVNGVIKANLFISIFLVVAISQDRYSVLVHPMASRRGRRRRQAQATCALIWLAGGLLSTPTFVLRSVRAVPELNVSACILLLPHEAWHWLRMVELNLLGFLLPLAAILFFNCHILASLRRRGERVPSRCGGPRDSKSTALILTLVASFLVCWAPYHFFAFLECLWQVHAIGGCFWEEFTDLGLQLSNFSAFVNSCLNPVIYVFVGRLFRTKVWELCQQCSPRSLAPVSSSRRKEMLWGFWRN
Excerpt: as §1, §2, §3

SMILES	G.P.I. α^E (B2 receptor [1]; residual agonistic activity at 10 μg/mL in comparison with BK)	Rb.J.V. α^E (B2 receptor [2])	Affinity higher than that of (Leu8)desArg9BK (human B1 receptor; human umbilical vein B1 receptor)	Human umbilical vein B1 receptor α^E (human B1 receptor; residual agonistic activity at 10 μg/mL)	Effect on enhanced sensitivity to desArg9BK of diabetic portal vein (BK-B1 receptor)	Block of portal vein contraction induced by the B1-BK receptor agonist (B1-BK receptor)	Human umbilical vein B2 receptor pA2 (human B2 receptor)	Rb.A. α^E (B1 receptor)	G.P.I. pA2 (B2 receptor [1]; vs BK, Inactive = no detectable antagonistic effect at ≦ 10 μg/ml, F.ag. full agonist, P.ag. partial agonist)
CC(C)C[C@H](NC(=O)[C@@H]1CCCN1C(=O)[C@H](CO)NC(=O)[C@H](Cc1ccccc1)NC(=O)CNC(=O)[C@@H]1CCCN1C(=O)[C@@H]1CCCN1C(=O)[C@H](CCCNC(=N)N)NC(=O)[C@@H](N)CCCCN)C(=O)O [Compound 2, Lys(Leu^8)desArg^9BK, reference compound]	0	0	at least 1.5 log units	0	abolished	completely blocked	^aInactive		
CC(C)C[C@H](NC(=O)[C@H]1Cc2ccccc2CN1C(=O)[C@H](CO)NC(=O)[C@H](Cc1ccccc1)NC(=O)CNC(=O)[C@@H]1CCCN1C(=O)[C@@H]1CCCN1C(=O)[C@H](CCCNC(=N)N)NC(=O)[C@@H](N)CCCCN)C(=O)O [Compound 10, Lys(D-Tic^7, Leu^8)desArg^9BK] (H-KRPPGFS[dTic]L-OH; N-terminus and C-terminus assumed)		0.44						0	F.ag.
